Experimental data: PubChem BioAssay AID504845 (National Center for Advancing Translational Sciences (NCATS), 2011)
Among all 390,000 compounds or so, about 150 (0.038%) were called active. Inconclusive results, whose numbers are uncertain, are shown with a selection of clear calls. Calls follow the shape of the dose curve; as a rule, active = well fitted inhibition curve with a large enough effect; inconclusive = small, poorly fitted or top-dose-only effect; inactive = no such curve, though single readings can be large or run the other way. Where the call is inconclusive, the potency comes from a doubtful curve fit.

Each compound was assayed against Regulator of G-protein signaling 4 (Homo sapiens) (UniProt P49798) (assay: Inhibitors of Regulator of G Protein Signaling (RGS) 4: qHTS). Conditions: Transcreener GDP fluorescence polarization, RGS4-accelerated GTP hydrolysis; series mostly up to 114 µM; activity change, negative = inhibition: at the top concentration.
Sequence of UniProt P49798 (P49798 whole entry, looked up): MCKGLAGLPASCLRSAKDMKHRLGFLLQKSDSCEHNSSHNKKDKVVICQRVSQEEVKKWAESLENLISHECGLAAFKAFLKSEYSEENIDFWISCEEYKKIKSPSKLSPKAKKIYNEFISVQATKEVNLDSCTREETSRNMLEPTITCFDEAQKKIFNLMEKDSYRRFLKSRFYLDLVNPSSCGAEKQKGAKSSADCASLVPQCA
How it was run: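 MLSMR compounds (23 nl, pin-transferred) preincubated 10 min at room temperature with a 500nM (2x) first reagent, then RGS4 at 900nM (2x) plus Transcreener GDP mix added; fluorescence polarization (620/688 nm) read before and after 90 min at 30 °C.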
% is scaled to controls: 0 for no effect and ±100 for the full control effect; potency is read from the fitted curve at half-maximal effect; tags tell the direction and shape of the fitted curve.
Also: nearly all actives have a fitted effect of over 75% in size.

Structure (SMILES) | activity change, negative = inhibition | Potency
CCCCOc1ccc(C(=O)N=c2sccn2C)cc1OC | inactive: -15.3% | 
CC(=O)NC1=NC(=O)/C(=C/c2cn(C(C)=O)nc2-c2ccccc2)S1 |  | inconclusive: 44.7 µM [inhibitor, partial curve, poor fit]
Cc1ccc(C)c(S(=O)(=O)N2CC(=O)Nc3ccccc32)c1 |  | inconclusive: 79.4 µM [inhibitor, partial curve, poor fit]
NS(=O)(=O)c1ccc(CCNc2nc3c(-c4cccc(F)c4)nnn3c3ccccc23)cc1 |  | inconclusive: 89.1 µM [inhibitor, partial curve, poor fit]
COc1ccc(CC(=O)NNC(=O)COc2ccc(F)cc2)cc1S(=O)(=O)N1CCOCC1 |  | inconclusive: 70.8 µM [inhibitor, single point]
CCN1CCN(C(=O)CN(c2cc(OC)ccc2OC)S(C)(=O)=O)CC1 | inactive: 20.4% | 
Cc1cc(C(=O)CN2C(=O)NC3(CCCc4sccc43)C2=O)c(C)n1-c1ccccc1 (stereo unspecified) | inactive: 5.22% | 
NC(=S)N/N=C1\CCOc2ccc(F)cc21 |  | inconclusive: 89.1 µM [inhibitor, single point]
Cc1cc2nc(SCC(=O)Nc3nonc3C)c3c(c2cc1C)CCCC3 | inactive: -7.87% | 
COc1ccccc1N1CCN(C(=O)c2cc3n(n2)C(C(F)(F)F)CC(c2ccco2)N3)CC1 (stereo unspecified) | inactive: 28.5% | 
COC(=O)c1nn(-c2ccc(OC)cc2)c(=O)c2c(N)sc(C)c12 |  | inconclusive: 79.4 µM [inhibitor, partial curve, poor fit]
COc1ccc(/C(C)=N/N2CCCCC2)c(O)c1 | inactive: 12.6% | 
Clc1ccc2c(NCc3cccs3)ncnc2c1 | inactive: 1.87% | 
COc1ccc(C(=O)OC(C)C(=O)NC(C)CCc2ccccc2)c(OC)c1 (stereo unspecified) |  | inconclusive: 100 µM [inhibitor, single point]
COc1ccc(/C=C2/C(=O)N(c3ccccc3)N=C2C)cc1Br |  | inconclusive: 20 µM [inhibitor, full curve, poor fit]
Cc1cccc(NC(=O)CN2C(=O)CC(c3ccccc3)Sc3ccccc32)c1 (stereo unspecified) | inactive: -12.7% | 
Cc1csc(NC(=O)c2ccc(Cn3nc(C)c(Br)c3C)o2)n1 | inactive: 4.54% | 
CCCCC(O)(CCCC)C(=O)NN(C(=O)OC)c1ccc(C)cc1 |  | inconclusive: 79.4 µM [inhibitor, single point]
O=C(Nc1ccc(Cl)c(Cl)c1)c1cccc(S(=O)(=O)NCc2cccnc2)c1 | inactive: 18.2% | 
Cn1c(SCC(=O)c2ccccc2F)nnc1C1CC1 |  | inconclusive: 31.6 µM [inhibitor, full curve, poor fit]
O=C(O)c1cc(N/N=C/c2ccncc2)ccc1Cl | inactive: 7.84% | 
O=C(CSCc1c(F)cccc1Cl)Nc1ccccc1C(=O)N1CCOCC1 |  | inconclusive: 44.7 µM [inhibitor, partial curve, poor fit]
COc1ccc(C(C)=O)cc1COc1ccc(-n2cnnn2)cc1 |  | inconclusive: 89.1 µM [inhibitor, single point]

Structure (SMILES) | activity change, negative = inhibition | Potency
COc1ccc(Oc2nc(-c3ccncc3)nc3ccccc23)cc1 | inactive: -3.99% | 
CC(C)(O)C1Cc2cc(/C=C/C(=O)O)c(O)cc2O1 (stereo unspecified) |  | inconclusive: 79.4 µM [inhibitor, partial curve, poor fit]
CCCC(=O)Nc1cc(-c2nc3cccnc3s2)ccc1C | inactive: -28.3% | 
CCc1cccc(NC(c2nnc(-c3ccccc3)o2)c2ccc(F)cc2Cl)c1 (stereo unspecified) |  | inconclusive: 89.1 µM [inhibitor, single point]
CC(NC(=O)c1cccc(NC(=O)c2nsc3ccccc23)c1)c1ccccc1 (stereo unspecified) | inactive: -6.95% | 
N#C/C(=C\c1cccc(Cl)c1)C(=O)c1ccccc1 |  | inconclusive: 39.8 µM [inhibitor, partial curve, poor fit]
CCn1nnc2c(N3CCCC3)ncnc21 |  | inconclusive: 31.6 µM [inhibitor, full curve, poor fit]
CCCNC(=O)c1nnsc1S(=O)c1ccc(Cl)cc1 (stereo unspecified) |  | inconclusive: 79.4 µM [inhibitor, partial curve, poor fit]
CCOC(=O)N1CCN(S(=O)(=O)c2ccc(C)c([N+](=O)[O-])c2)CC1 |  | inconclusive: 50.1 µM [inhibitor, partial curve, poor fit]
CC(=O)CS(=O)(=O)c1ccc(Oc2ccc(S(=O)(=O)CC(C)=O)cc2)cc1 |  | inconclusive: 89.1 µM [inhibitor, single point]
COc1ccc(C2OC(=O)CC2C(=O)NC2CCCCCC2)cc1OC (stereo unspecified) | inactive: 37.4% | 
N#CC(C#N)=C1C=CC=CN1/C(=C\c1ccco1)C(=O)c1ccc(Br)cc1 |  | inconclusive: 50.1 µM [inhibitor, partial curve, poor fit]
CCc1ccc(NC(=O)C2CCCN(S(=O)(=O)c3cnc[nH]3)C2)cc1 (stereo unspecified) | inactive: -11.9% | 
O=C1C=CC(=O)N1c1ccc(OC(F)F)cc1 |  | inconclusive: 20 µM [inhibitor, full curve, poor fit]
O=C(O)c1cc(O)c2c(c1)C(=O)c1cccc(O)c1C2=O |  | inconclusive: 100 µM [inhibitor, partial curve, poor fit]
N#Cc1c(Cl)nsc1NN |  | inconclusive: 50.1 µM [inhibitor, partial curve, poor fit]
COc1cccc(CNC(=O)CSc2nc3ccccc3nc2Cc2ccc(C)cc2)c1OC |  | inconclusive: 79.4 µM [inhibitor, partial curve, poor fit]
CN(C)c1cc(Cl)c2nonc2c1N |  | inconclusive: 79.4 µM [inhibitor, single point]
COC(=O)c1ccc(NC(=O)C2CCN(C(=O)c3cc(OC)c(OC)c(OC)c3)CC2)cc1 |  | inconclusive: 89.1 µM [inhibitor, single point]
COc1c(O)cc2c(c1O)C1OC(CO)C(O)C(O)C1OC2=O (stereo unspecified) | inactive: 6.96% | 
NNC(=O)Cn1c(-c2ccccc2)cc2ccccc21 | inactive: 1.86% | 
CCN(CC)S(=O)(=O)c1ccc(O)c(NS(=O)(=O)c2ccccc2F)c1 |  | inconclusive: 50.1 µM [inhibitor, partial curve, poor fit]
Cc1ccc(-c2nc(=Nc3c(C)cc(C)cc3C)sn2-c2ccccc2)cc1 |  | inconclusive: 10 µM [inhibitor, full curve, poor fit]
